Measured values as given in PMC12136788.
Some of the results follow.

T1: UNK ZnF1-6 (called full-length) (human, UniProt Q9C0B0 30-357)
T1 sequence: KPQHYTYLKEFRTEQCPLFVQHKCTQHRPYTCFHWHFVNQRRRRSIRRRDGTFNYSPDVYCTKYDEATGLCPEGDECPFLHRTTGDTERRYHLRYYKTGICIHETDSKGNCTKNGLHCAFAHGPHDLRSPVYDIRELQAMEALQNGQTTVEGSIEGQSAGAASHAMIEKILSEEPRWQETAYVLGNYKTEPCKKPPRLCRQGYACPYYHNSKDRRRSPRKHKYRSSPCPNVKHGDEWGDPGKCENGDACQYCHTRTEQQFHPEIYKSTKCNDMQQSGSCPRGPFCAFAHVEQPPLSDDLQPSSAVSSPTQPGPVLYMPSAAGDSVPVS

B1: ENSG00000215021:stop:overlap|stop_codon|ENSG00000215021|stop_codon|NA|stop_codon (ssRNA)
RNA: GGGAGUUCUACAGUCCGACGAUCCUACAGAUGGUGAAUAUCUCCCUGCGAGUGUUGUCUCGACCCAAUGCUCAGGAGCUUCCUAGCAUGUACCAGCGCCUAGGGCUGGACUACGAGGAACGAGUGUUGCCGUCCAUUGUCAACCAACAGAGGAUUGAGCAUCA
B2: chr1:89935720:89935824:+|3pUTR|ENSG00000171492|msi1|total|mutant (ssRNA)
RNA: GGGAGUUCUACAGUCCGACGAUCUACAAGAUAAUGCAUUUCCGGAGCCGAUACAUCUUUUAAAAUAAAACAGAGAGGAUGCACCGAAGGCUGACCGAAGACAUAACUGAAUGUUCAAUGUUUGCCGGGUUUUAAGUCAUUCAUCAACAGAGGAUUGAGCAUCA
B3: chr18:9283235:9283336:+|3pUTR|ENSG00000101745|msi1|total|mutant (ssRNA)
RNA: GGGAGUUCUACAGUCCGACGAUCCUGAUGGUUCAACCAGAGGUCUGGGAAACCGCACUGUUGGCCCAAACAGAACAGGCUUUCCGAAGAUAAAAGCGACAAGAAGGAAUCUGGUGAAUUUCCGUCAUCCCAGCUUUUCCGUCUCAACAGAGGAUUGAGCAUCA
B4: chr18:9859767:9859850:+|3pUTR|ENSG00000168461|msi1_unk|total|mutant (ssRNA)
RNA: GGGAGUUCUACAGUCCGACGAUCUUGUUACCUAACCAACCUUCACUGAAAGGCAAAUUCCGUUCAGGAGGUCCGUUUUCCGCCCGCUUUGGAAGUAAGCCUUUAUUUAUUACUUUUUGGAGGAAAUCAGAGAAGUGUCAAUGGCAACAGAGGAUUGAGCAUCA
B5: chr15:80137503:80137604:+|CDS|ENSG00000086666|unk|FALSE|unique (ssRNA)
RNA: GGGAGUUCUACAGUCCGACGAUCCAAUUGCUCUUACAAUUACAAAGCCGAUGCUGCUGAGAAAAUCAGAAAAGAAAAUCCAGUAGUUGUUGGUGAAAAGAUCCAAAAGAUUUGAACUCCUGCUGGAAUACAAAAUUCUUGAGCCAACAGAGGAUUGAGCAUCA
B6: chr19:58433325:58435211:-|CDS|ENSG00000131849|control|control|control (ssRNA)
RNA: GGGAGUUCUACAGUCCGACGAUCGAAAGAUCUACACUUGUUCGGCACCAGAAAGUUCACACCAGAGAAAGGACUUAUGAGUGUAGCCAGUGUGGGAAACUCUUCAGCCAUCUUUGUAACCUUGCACAGCAUAAAAAGAUUCAUCAACAGAGGAUUGAGCAUCA
B7: ENSG00000021776:stop:overlap|stop_codon|ENSG00000021776|stop_codon|NA|stop_codon (ssRNA)
RNA: GGGAGUUCUACAGUCCGACGAUCCUGCACCGGCAGAAGCUAACACACCUCAGGAUGCCACAUCUGCCCCGGAAGAGACCAAGUAGCCAAACUGUAGUCCUUCUAAAGGAGGACAUGGCAGUCAAAAAGUCUGAGUAAAGCUGUCAACAGAGGAUUGAGCAUCA
B8: chr3:48693060:48693174:-|CDS|ENSG00000068745|unk|total|mutant (ssRNA)
RNA: GGGAGUUCUACAGUCCGACGAUCCCUUCCAGGUGUGGUAUCUGUGCGCUUUGAAGAAGAUGAAGACAGGAACUUGUGUCUAACCGCAUAUCCAUUGAAAGGGGACCAUGGAAUUGUGGACAUUGCCGAUAAUUCAGACUGUGACAACAGAGGAUUGAGCAUCA
B9: chr10:68442948:68443070:-|CDS|ENSG00000138346|unk|total|mutant (ssRNA)
RNA: GGGAGUUCUACAGUCCGACGAUCCCCAAUUGUGAUGCUGCCCAAAACCGAAGAAGAAACCCAGCAUCUGAAGCAAACACACUCCGAAUAUUUCAGCCUUUGGUGUCUAAUGUUAACCCUGGAGUCACAAUCGAAGGAUAAUAACAACAGAGGAUUGAGCAUCA
B10: chr12:57028516:57028881:-|three_prime_utr|ENSG00000166866|control|control|control (ssRNA)
RNA: GGGAGUUCUACAGUCCGACGAUCUUAAACUACCCUUGAAGAGGACCCUUGUCCCAAACCCUUCUUGUUCUCUCCUCCAAAAGUAGCUUCCUCCAACCCGCAGCCUCUCUGCACACUAAUAAAACAUGUGGCUUGGAAAGGUUCCAACAGAGGAUUGAGCAUCA
B11: chr3:98797769:98798349:-|3pUTR|ENSG00000057019|msi1|total|mutant (ssRNA)
RNA: GGGAGUUCUACAGUCCGACGAUCUUGUUUUUGAUACCUCCUGGCAGCUUCCAUGUCACCACUUGUUCAUACCUGCCCAGAGCCCGUUUCCGACAUGGCAAAACCGAAAUCAUCUGUAAUUUAUCCGCUAACAAUGUAAAACCACAACAGAGGAUUGAGCAUCA
B12: chr6:30743938:30744518:-|CDS|ENSG00000137331|control|control|control (ssRNA)
RNA: GGGAGUUCUACAGUCCGACGAUCUGGGGAACGACCCGACUCCAGAGGCCUCGACCUGACCUGUCUCCUGUUUUGUCUCCCCUUAGGUCCGGCGCCAGCUGCCAGUCGAGGAACCGAACCCAGCCAAAAGGCUUCUCUUUCUGCCAACAGAGGAUUGAGCAUCA
B13: chr6:73641827:73641929:-|CDS|ENSG00000119899|unk|FALSE|unique (ssRNA)
RNA: GGGAGUUCUACAGUCCGACGAUCGAGAAAAGAGCUGCUCUGUGAAGGUCUUAAAGGAUUGUUUUAUUCUUUUCUGAUUUUUGUAGGGUAAGAAGUACCAAUGGGAUGCAGAAACUCAAGGAUGGAUUCUCGGUUCCUUUUUUUCAACAGAGGAUUGAGCAUCA
B14: ENSG00000070961:be:win_101|CDS|ENSG00000070961|bound_else_gene|NA|bound_elsewhere_windowed (ssRNA)
RNA: GGGAGUUCUACAGUCCGACGAUCUGCGGGCUCUCAUGGAGCUCAGGUCCACAGAUGCAUUACGAAAAAUACAGGAAAGCUAUGGAGAUGUCUAUGGAAUUUGCACCAAAUUGAAAACAUCUCCCAAUGAAGGUUUAAGUGGAACAACAGAGGAUUGAGCAUCA
B15: chr1:183142599:183142700:+|CDS|ENSG00000135862|msi1|FALSE|unique (ssRNA)
RNA: GGGAGUUCUACAGUCCGACGAUCAACGAGAUUGAAGGCACCCUAAACAAAGCCAAAGAUGAAAUGAAGGUCAGCGAUCUUGAUAGGAAAGUGUCUGACCUGGAGAAUGAAGCCAAGAAGCAGGAGGCUGCCAUCAUGGACUAUCAACAGAGGAUUGAGCAUCA
B16: ENSG00000164609:stop:overlap|stop_codon|ENSG00000164609|stop_codon|NA|stop_codon (ssRNA)
RNA: GGGAGUUCUACAGUCCGACGAUCAGGCAUAUAGAAUGAAACGUCAGAGGCCAGAUGACCCCAUGGCCUCUUUCCUUGGACAGUAGCAACUAGUCAGAAGACCAUCCAAGAUAGAUGCAGCUGAUACAUUCUUUUCAGCUUCUUCAACAGAGGAUUGAGCAUCA
B17: chr7:80742675:80742739:-|3pUTR|ENSG00000075223|msi1_unk|FALSE|overlapping (ssRNA)
RNA: GGGAGUUCUACAGUCCGACGAUCGUAGCUUGACAAUUCAGUGACUUAAUAUCUAUUCCAUUUGUAUUGUACAUAAAAUUUUCUAGAAAUACACUUUUUUCCAAAGUGUAAGUUUGUGAAUAGAUUUUAGCAUGAUGAAACUGUCAACAGAGGAUUGAGCAUCA
B18: ENSG00000198589:be:win_651|CDS|ENSG00000198589|bound_else_gene|NA|bound_elsewhere_windowed (ssRNA)
RNA: GGGAGUUCUACAGUCCGACGAUCUGCAUUACCUCCUAUAGCCAAAUGGCCAUACCAGAAUGGUUUUACAUUUCAUACAUGGCUUAGAAUGGAUCCUGUAAAUAACAUCAAUGUAGAUAAGGAUAAACCAUAUUUGUAUUGUUUCAACAGAGGAUUGAGCAUCA
B19: chr2:9584341:9584442:-|3pUTR|ENSG00000134308|msi1_unk|FALSE|overlapping (ssRNA)
RNA: GGGAGUUCUACAGUCCGACGAUCUUUCCAUGCAGAUUUGUGCACAUGUGAGAGGGUGUCCAGUUUGUCUAGUGAUUGUUAUUUAGAGAGUUGGACCACUAUUGUGUGUUGCUAAUCAUUGACUGUAGUCCCAAAAAAGCCUUGCAACAGAGGAUUGAGCAUCA
B20: chr14:57493492:57493715:-|CDS|ENSG00000100557|control|control|control (ssRNA)
RNA: GGGAGUUCUACAGUCCGACGAUCGAGUCACUCUAAGACUCACCUUAGGGUGAUCAAAGUAGCACCUUUGCAAAACAAAGAGGUAGAGACUCCCUCGGCUGGCCGUGUGGACUUUGCAUUCAAUCAGAAUUUGGAAGAAAAGACCAACAGAGGAUUGAGCAUCA
B21: chr2:105361111:105361195:-|3pUTR|ENSG00000115641|msi1_unk|total|mutant (ssRNA)
RNA: GGGAGUUCUACAGUCCGACGAUCCUUUCUCACCCAGGCAAUCUUGCCUUCUGGUUUCUUCCAGCCACAUUGAGACUUUCUUCCCGUGCUUUUCAGUGAUACUCACGUUUGCUUAAACCCUUCCGUGCUUUGUGACCGUUCAGUCAACAGAGGAUUGAGCAUCA
B22: chr7:94910433:94910544:+|CDS|ENSG00000158528|unk|FALSE|bound_elsewhere (ssRNA)
RNA: GGGAGUUCUACAGUCCGACGAUCCUGGAAAAAACAGAUGGCUCAGUUGUUAAGUUGGAGUCUUCUGUUUCUGAACGAAUUAGUAGAUUUGACACUAUGUACGAUGGCCCUUCAUAUUCCAAGUUCACUGAGACUCGAAAGAUGCAACAGAGGAUUGAGCAUCA

These binders were tested against T1, UNK ZnF1-6 (called full-length) (assay: nsRBNS (natural sequence RNA bind-n-seq); RBNS binding buffer (assumed for nsRBNS): 25 mM Tris pH 7.5, 150 mM KCl, 3 mM MgCl2, 0.01% Triton X-100, 500 ug/ml BSA, 20 U/ml SUPERase-In, 4 C; UNK is unkempt and MSI1 is Musashi-1; names of the RNAs are library labels; protein concentration not given here; high values mean tight binding).

Binder	binding signal
B1	0.362 enrichment R
B2	0.333 enrichment R
B3	0.392 enrichment R
B4	0.466 enrichment R
B5	0.362 enrichment R
B6	0.533 enrichment R
B7	0.541 enrichment R
B8	0.665 enrichment R
B9	0.471 enrichment R
B10	0.686 enrichment R
B11	0.619 enrichment R
B12	1.02 enrichment R
B13	0.417 enrichment R
B14	0.441 enrichment R
B15	0.678 enrichment R
B16	0.598 enrichment R
B17	1.16 enrichment R
B18	0.554 enrichment R
B19	0.516 enrichment R
B20	0.515 enrichment R
B21	0.511 enrichment R
B22	0.459 enrichment R
